Results as given in PubChem BioAssay AID588579 (National Center for Advancing Translational Sciences (NCATS), 2011).
“And” between values parts separate entries of the source, which are not always exact repeats. Equal entries are not always repeated. The campaign covered roughly 400,000 compounds. About 2,200 (0.55%) were called active. This list was built around the results that the source calls inconclusive (neither active nor inactive); the mix of calls is not that of the screen. Calls follow the shape of the dose curve; as a rule, active = well fitted inhibition curve with a large enough effect; inconclusive = small, poorly fitted or top-dose-only effect, or another doubt; inactive = no such curve, though single readings can be large or run the other way. Where the call is inconclusive, the potency comes from a doubtful curve fit.

biological target: DNA polymerase kappa (Homo sapiens) (UniProt Q9UBT6); assay: qHTS for Inhibitors of Polymerase Kappa; conditions: purified Pol kappa, fluorescent DNA synthesis assay, 10 min; series mostly up to 107 µM
Method in brief: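 Kinetic fluorescence readout at 0 and 10 min followed reaction start with substrate at 50 nM final. Beforehand, enzyme (10 nM Pol kappa) stood 15 min with compound at room temperature; buffer-only wells were negative controls.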
% is scaled to controls: 0 for no effect and ±100 for the full control effect; potency is read from the fitted curve at half-maximal effect; tags tell the direction and shape of the fitted curve.

Sequence of UniProt Q9UBT6 (Q9UBT6 whole entry, looked up): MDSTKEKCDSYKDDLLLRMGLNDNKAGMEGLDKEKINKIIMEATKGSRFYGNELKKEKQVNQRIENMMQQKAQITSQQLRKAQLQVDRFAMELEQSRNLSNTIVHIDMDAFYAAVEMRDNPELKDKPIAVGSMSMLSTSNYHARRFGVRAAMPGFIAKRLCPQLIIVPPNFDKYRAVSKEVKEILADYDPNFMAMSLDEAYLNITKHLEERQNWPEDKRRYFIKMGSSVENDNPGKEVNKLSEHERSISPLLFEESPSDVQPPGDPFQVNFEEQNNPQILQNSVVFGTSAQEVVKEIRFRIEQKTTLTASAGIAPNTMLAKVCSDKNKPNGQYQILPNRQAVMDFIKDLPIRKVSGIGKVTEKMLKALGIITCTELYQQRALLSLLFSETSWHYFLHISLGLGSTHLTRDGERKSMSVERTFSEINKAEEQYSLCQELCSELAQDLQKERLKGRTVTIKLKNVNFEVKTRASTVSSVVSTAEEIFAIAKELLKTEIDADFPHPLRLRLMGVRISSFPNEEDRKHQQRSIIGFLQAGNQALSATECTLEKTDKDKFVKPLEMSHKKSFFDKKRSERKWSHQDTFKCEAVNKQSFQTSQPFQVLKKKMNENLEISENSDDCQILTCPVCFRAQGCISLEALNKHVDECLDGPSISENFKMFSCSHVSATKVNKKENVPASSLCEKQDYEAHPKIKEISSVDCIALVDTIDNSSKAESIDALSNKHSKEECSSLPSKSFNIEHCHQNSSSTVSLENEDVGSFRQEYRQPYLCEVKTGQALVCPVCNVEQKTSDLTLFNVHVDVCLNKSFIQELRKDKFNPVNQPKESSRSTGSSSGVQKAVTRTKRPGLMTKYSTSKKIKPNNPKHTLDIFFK

Potency, inconclusive:
C/C(=N/NS(=O)(=O)c1ccc(Cl)cc1)c1ccncc1 11.2 µM [inhibitor, partial curve, poor fit]
CCOC(=O)c1ccc(NC(=O)Nc2ccc3c(c2)OCCO3)cc1 79.4 µM [inhibitor, partial curve, poor fit]
C=C(C)Cn1c(SCC(=O)c2ccc(OC)cc2)nc2sc3c(c2c1=O)CCCC3 89.1 µM [inhibitor, partial curve, poor fit]
O=C(c1ccncc1)N1CCC2(CC1)CCN(C(c1ccccc1)c1ccccc1)CC2 25.1 µM [inhibitor, partial curve]
C=CCN(CC=C)CC(=O)Nn1c(C)ccc1C 89.1 µM [inhibitor, single point]
O=C(COC(=O)c1cccs1)NCc1ccco1 89.1 µM [inhibitor, single point]
CCOC(=O)N1CCN(C(=O)C2CCN(C(=O)c3ccccc3C)CC2)CC1 89.1 µM [inhibitor, single point]
O=C(COC(=O)/C=C/c1ccc(Br)o1)Nc1cccc(S(=O)(=O)N2CCOCC2)c1 100 µM [inhibitor, single point]
CCOC(=O)c1sc(N=NC2=C(O)CCCC2=O)c(C(=O)OCC)c1C 100 µM [inhibitor, single point]
NC(=O)CSc1oc(-c2ccco2)nc1S(=O)(=O)c1ccc(Br)cc1 79.4 µM [inhibitor, partial curve]
C[N+](C)(CCCCCC[N+](C)(C)CCCN1C(=O)c2cccc3cccc(c23)C1=O)CCCN1C(=O)c2cccc3cccc(c23)C1=O 56.2 µM [inhibitor, partial curve, poor fit] and 37.7 µM [inhibitor, single point]
O=C(Cc1ccc(S(=O)(=O)N2CCOCC2)s1)Nc1ccccc1Br 89.1 µM [inhibitor, single point]
O=S(=O)(c1ccccc1)N(CC(F)(F)F)c1ccc(C(O)(C(F)(F)F)C(F)(F)F)cc1 35.5 µM [inhibitor, partial curve, poor fit]
CCOc1cc(Br)cc(C2NC(=O)c3c(sc4c3CCN(C)C4)N2)c1O (configuration not stated) 79.4 µM [inhibitor, partial curve]
COCCn1c(=O)cnc2cnc(OCc3ccccc3)nc21 0.0251 µM [inhibitor, full curve, poor fit]
O=c1[nH]cc([N+](=O)[O-])cc1Br 79.4 µM [inhibitor, partial curve, poor fit]
O=C(O)COc1ccc(CCNS(=O)(=O)c2ccccc2)s1 11.2 µM [inhibitor, single point]
Nc1c2c(=O)[nH]c(O)cc2nn1-c1ccccc1 89.1 µM [inhibitor, single point]
O=C1NN(c2ccc(F)cc2)C(=O)/C1=C\C=C\c1ccco1 89.1 µM [inhibitor, single point]
Cc1c(C(=O)OC(C)C)sc(NC(=O)C2c3ccccc3Oc3ccccc32)c1C(=O)OC(C)C 89.1 µM [inhibitor, partial curve, poor fit]
COc1cc(C(=S)N2CCCC2)ccc1O 89.1 µM [inhibitor, single point]
COc1ccc2[nH]c(C(=O)N/N=C/c3ccc(OC)c(O)c3)cc2c1 89.1 µM [inhibitor, partial curve, poor fit]
Cc1ccc(NS(=O)(=O)c2ccc3c(c2)NC(=O)C(C)C(=O)N3)cc1F (configuration not stated) 89.1 µM [inhibitor, single point]
O=C1/C(=C/c2ccco2)Cc2ccccc21 31.6 µM [inhibitor, single point]
Cc1ccc2[nH]c(=O)c(CN(CCCO)Cc3nnnn3Cc3ccco3)cc2c1 89.1 µM [inhibitor, single point]
Cc1cc(C)c2nc(-c3ccccn3)cc(C(=O)Nc3ccc(S(=O)(=O)Nc4onc(C)c4C)cc3)c2c1 56.2 µM [inhibitor, partial curve, poor fit]
COc1cc2c(cc1OC)C1(O)C(=O)c3ccc(O)c(C(=O)O)c3OC1CO2 (configuration not stated) 28.2 µM [inhibitor, partial curve]
C/C(CC(=O)N1CCCC1)=N\NC(=O)c1cc2ccccc2cc1O 89.1 µM [inhibitor, partial curve, poor fit]
Cc1cc[n+](-c2[nH]c(=O)sc2/C=N/NC(=O)c2ccccc2[O-])cc1C 79.4 µM [inhibitor, partial curve, poor fit]
COc1ccc(Nc2c3c(nc4ccc(NC(=O)/C=C/c5cc(OC)c(OC)c(OC)c5)cc24)CCCC3)cc1OC 50.1 µM [inhibitor, partial curve, poor fit]
N#Cc1cccc(-c2ccc3ncnc(NCc4cccs4)c3c2)c1 39.8 µM [inhibitor, single point]
COc1ccc(/C=N/c2c(-c3ccco3)nc3ccccn23)cc1OC 89.1 µM [inhibitor, single point]
Cc1oc(C)c2c(=O)ccc3c(c12)OC(N)=C(C#N)C3c1ccccc1Cl (configuration not stated) 79.4 µM [inhibitor, single point]
CCN(CC)c1cc(C)c2cc(NC(=O)c3ccc(OC)c(OC)c3)ccc2n1 79.4 µM [inhibitor, partial curve, poor fit]
O=C(c1c(O)cc(O)cc1O)C1c2c(cc(O)c3c2O[C@H](c2ccc(O)cc2)[C@@H](O)C3)OC1c1ccc(O)cc1 (some centres not stated) 79.4 µM [inhibitor, single point]
COc1ccc(C(=O)CC(=O)c2ccc(C(C)(C)C)cc2)cc1 31.6 µM [inhibitor, partial curve]

Potency, active:
O=C(CSc1nc2nn(-c3ccccc3)c(=O)c-2c2n1CCCCC2)c1ccc(O)c(O)c1 3.98 µM
Cc1ccc(N=C2NC(=O)/C(=C/C=C/c3ccco3)S2)cc1 20 µM
Cn1cccc1C(=O)OCc1nc2ccccc2c(=O)[nH]1 70.8 µM
CCCCN(C(=O)c1cc(-c2ccco2)nc2ccccc12)c1c(N)n(CCCC)c(=O)[nH]c1=O 79.4 µM
CC1(C)SC2C(N3C(=O)C(c4ccccc4)NC3(C)C)C(=O)N2C1C(=O)O (configuration not stated) 7.08 µM
Cc1cnc2c3c(cc(Cl)c2c1)-c1ccccc1S(=O)(=O)N3 79.4 µM
O=c1c(OC2OC(CO)C(O)C(O)C2OC2OC(CO)C(O)C(O)C2O)c(-c2ccc(O)cc2)oc2cc(O)cc(O)c12 (configuration not stated) 50.1 µM

Potency, inactive:
O=C1CC(N2CCC(c3nc4ccccc4o3)CC2)C(=O)N1 (configuration not stated)
NC(=O)COC(=O)c1c2c(nc3ccccc13)CCCCC2
CC(=O)c1cccc(NC(=O)CCS(=O)(=O)c2cc(Br)cc3c2N(C(=O)C2CC2)CC3)c1
Cn1c(C(=O)NCc2ccc(F)cc2)cc2c(=O)n(C)c3ccccc3c21
CCn1c(=O)c2sccc2n2c(CCCC(=O)N3CCN(c4ccc(OC)cc4)CC3)nnc12
COc1cc(NC(=O)Cn2cnc(S(=O)(=O)N3CCc4ccccc43)c2)cc(OC)c1OC
NC(=O)CC(NC(=O)Cc1ccc(Br)cc1)c1ccc(NC2CCN(Cc3ccccc3)CC2)c([N+](=O)[O-])c1 (configuration not stated)
CN(C)CCNS(=O)(=O)c1ccc2c3c(cccc13)C(=O)N2
O=C(c1ccc(NS(=O)(=O)c2ccc3[nH]c(=O)[nH]c3c2)cc1)N1CCCCC1
Cn1c(=O)c2sccc2n2c(CCC(=O)NCc3ccc(F)cc3)nnc12
COc1c2c(c(CCC(=O)O)c3c1C=CC(C)(C)O3)OC(C)(C)C=C2
CCCn1c(SCc2nc(-c3ccccc3C)no2)nnc1-c1ccc(Cl)cc1
COC1OC2COC(c3ccccc3)OC2C(O)C1NC(C)=O (configuration not stated)
Cn1c(NCCCCO)nc2c1c(=O)n(Cc1ccc(Cl)cc1)c(=O)n2C
CCOc1cc(/C=C(\C#N)c2[nH]nc(N)c2C#N)ccc1O
Cc1cccc(NC(=O)CSc2nc(-c3ccco3)cc(C(F)(F)F)n2)c1C
COC(=O)c1ccccc1NC(=O)c1cnc(Nc2ccc(OC)cc2)c2ccccc12
CC(=O)NC(Cc1c[nH]c2ccccc12)C(=O)NCc1ccco1 (configuration not stated)
CCNC(=O)CN(CCc1ccccc1)S(C)(=O)=O
COc1cc(NC(=O)c2cc3ccccc3cc2O)c(OC)cc1Cl
CC(C)c1ccc(CNCCCSc2ncccn2)cc1
Cc1ccc(NC(=O)c2cnn(-c3ccc(C)c(C)c3)c2C2CCN(C(=O)OC(C)(C)C)CC2)c(C)c1
O=C(C1=C(O)C(=O)N(Cc2ccco2)C1c1cccnc1)c1cc2ccccc2o1 (configuration not stated)

activity, negative = inhibition, inactive:
COC1CC2CCC(C)[C@](O)(O2)C(=O)C(=O)N2CCCCC2C(=O)OC(C(C)CC2CCC(O)C(OC)C2)CC(=O)C(C)/C=C(/C)C(O)C(OC)C(=O)C(C)CC(C)C=CC=C/C=C\1C (some centres not stated) -6.32% [at 19.4 µM]
